Measured values reported in PubChem BioAssay (NCI).
“And” between values parts separate entries of the source, which are not always exact repeats. Identical values can stand only once.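 Grown in 96-well plates, cells were treated for 48 hours with each compound at five concentrations. Insufficient inhibition: endpoint recorded as highest concentration tested. GI50: concentration for 50% inhibition of growth. TGI: total growth inhibition.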

Test system: NCI-H322M lung
Test: NCI anticancer screen, dose series, 48 h

| Structure (SMILES) | TGI | GI50 |
| --- | --- | --- |
| CC(=O)O[C@H]1CCC2[C@@H]3CCC4=C(O)c5nocc5C[C@]4(C)C3CC[C@@]21C (stereo partly specified) | > 100 µM | – |
| COc1cc(CNCCCN2C(=O)c3ccc4c5c(ccc(c35)C2=O)C(=O)N(CCCNCc2cc(OC)c(OC)c(OC)c2)C4=O)cc(OC)c1OC | 1.54 µM | 0.404 µM |
| O=c1[nH]c(=O)n(C2CC(O)C(CO)O2)cc1CO (stereo unspecified) | > 100 µM | > 100 µM |
| Nc1nc(N)c(N=Nc2ccc([As](=O)(O)O)cc2)c(=O)[nH]1 | > 100 µM | – |
| CCOC(=O)C1=C(N)Oc2ccc(Br)cc2C1C(C#N)C(=O)OCC (stereo unspecified) | > 100 µM | – |
| CCN(CC)C(=S)SS(=O)(=O)c1ccc(F)cc1 | > 100 µM | – |
| CSc1ncnc2c1cnn2CCCCO | > 100 µM | – |
| CC[C@@]12N=C(N(C)C)C[C@]1(O)ON=C2C | > 100 µM | – |
| O=C(c1c(F)ccc(NS(=O)(=O)N2CC[C@@H](F)C2)c1F)c1c[nH]c2ncc(-c3cnc(C4CC4)nc3)cc12 | > 10 µM and 52.7 µM | 2.84 µM and 4.3 µM |
| COc1ccccc1N1CCN(CCCn2c(=O)c3c(OC)nc(C)cc3c(=O)n2-c2ccccc2)CC1 | > 100 µM | > 100 µM |
| CN(C)c1c([O-])c(=[N+](C)C)c1=O | > 100 µM | – |
| O=C(CC(=O)c1ccccc1)CC(O)(c1ccccc1)c1ccccc1 | 27.7 µM | – |
| O=S(=O)(O)c1ccc(N=Nc2ccc(N=Nc3c(O)ccc4ccccc34)cc2)cc1 | > 100 µM | – |
| CC(/C=N\NC(=S)N1CCCCC1)=N/NC(=S)N1CCCCC1 | 15.8 µM | – |
| COc1cc(/C=C/C(=O)O)ccc1C(=O)OCc1ccccc1 | > 100 µM | – |
| CN1CCN(CN2C(=O)C3C4C=CC(C3C2=O)C2C(=O)N(CN3CCN(C)CC3)C(=O)C42)CC1 (stereo unspecified) | > 100 µM | – |

| Structure (SMILES) | TGI | GI50 |
| --- | --- | --- |
| Cc1csc(Nc2nc(-c3cccc(Br)c3)nc(C(Cl)(Cl)Cl)n2)n1 | 2.88 µM | 0.8 µM |
| NC12Oc3cc(O)cc(O)c3C1(c1ccc(Cl)cc1)c1c(O)cc(O)cc1O2 (stereo unspecified) | > 100 µM | – |
| COc1ccncc1C#Cc1cncc(C(=O)Nc2ccc(CN3CCN(C)CC3)c(C(F)(F)F)c2)c1 | > 100 µM | 27.9 µM |
| CCO/C=N/NC(=O)CSc1nc2ccc(I)cc2c(=O)n1Cc1ccccc1 | > 100 µM | – |
| Nc1c(C(=O)Nc2cccc(Br)c2)sc2nc3c(cc12)C(=O)CCC3 | > 100 µM | 0.461 µM |
| CCN(CC)c1nc(-c2ccc(Cl)cc2Cl)nc2ccccc12 | 75.6 µM | 18.7 µM |
| CC(CC(=O)O)C(C(=O)O)C(=O)O (stereo unspecified) | > 100 µM | – |
| O=C(O)CSc1n[nH]c(-c2ccccc2)n1 | > 100 µM | – |
| CC12CCC3C(CCC4=CC(O)CCC43C=O)C1(O)CCC2c1ccc(=O)oc1 (stereo unspecified) | 0.133 µM and 0.0542 µM | 0.05 µM |
| COc1ccc2[nH]cc(-c3nc(-c4c[nH]c5ncccc45)cs3)c2c1 | > 100 µM | 7.67 µM |
| COc1ccc(C(O)c2nccn2C)c(OC)c1 (stereo unspecified) | > 100 µM | – |
| COC1[C@@H](OC(C)=O)[C@@H](NC(=O)C(Cl)(Cl)Cl)C(I)[C@@H](N2C(=O)c3ccccc3C2=O)[C@H]1OC (stereo partly specified) | > 100 µM | – |
| O=C1NC(=S)NNC12c1ccccc1-c1ccccc12 | > 10 µM | – |
| Cc1cn(CCCCCOC(=O)NC(CCCN=C(N)N)C(=O)O)c(=O)[nH]c1=O (stereo unspecified) | > 100 µM | – |
| COc1ccc2oc(-c3cccnc3)cc(=O)c2c1 | > 100 µM | – |
